# The campaign covered roughly 310,000 compounds. About 14,000 (4.5%) showed an effect of 50% or more. The effect is printed as a negative number. This is one part of the list.
# Biological target: human ether-à-go-go-related gene (hERG) potassium channel (human, UniProt Q12809)
# Assay: primary screen, population patch clamp on CHO cells stably expressing hERG
# 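Note: peak tail current of the secondary pulse compared with the same well before compound.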
# human ether-à-go-go-related gene (hERG) potassium channel, sequence (Q12809 whole entry, looked up): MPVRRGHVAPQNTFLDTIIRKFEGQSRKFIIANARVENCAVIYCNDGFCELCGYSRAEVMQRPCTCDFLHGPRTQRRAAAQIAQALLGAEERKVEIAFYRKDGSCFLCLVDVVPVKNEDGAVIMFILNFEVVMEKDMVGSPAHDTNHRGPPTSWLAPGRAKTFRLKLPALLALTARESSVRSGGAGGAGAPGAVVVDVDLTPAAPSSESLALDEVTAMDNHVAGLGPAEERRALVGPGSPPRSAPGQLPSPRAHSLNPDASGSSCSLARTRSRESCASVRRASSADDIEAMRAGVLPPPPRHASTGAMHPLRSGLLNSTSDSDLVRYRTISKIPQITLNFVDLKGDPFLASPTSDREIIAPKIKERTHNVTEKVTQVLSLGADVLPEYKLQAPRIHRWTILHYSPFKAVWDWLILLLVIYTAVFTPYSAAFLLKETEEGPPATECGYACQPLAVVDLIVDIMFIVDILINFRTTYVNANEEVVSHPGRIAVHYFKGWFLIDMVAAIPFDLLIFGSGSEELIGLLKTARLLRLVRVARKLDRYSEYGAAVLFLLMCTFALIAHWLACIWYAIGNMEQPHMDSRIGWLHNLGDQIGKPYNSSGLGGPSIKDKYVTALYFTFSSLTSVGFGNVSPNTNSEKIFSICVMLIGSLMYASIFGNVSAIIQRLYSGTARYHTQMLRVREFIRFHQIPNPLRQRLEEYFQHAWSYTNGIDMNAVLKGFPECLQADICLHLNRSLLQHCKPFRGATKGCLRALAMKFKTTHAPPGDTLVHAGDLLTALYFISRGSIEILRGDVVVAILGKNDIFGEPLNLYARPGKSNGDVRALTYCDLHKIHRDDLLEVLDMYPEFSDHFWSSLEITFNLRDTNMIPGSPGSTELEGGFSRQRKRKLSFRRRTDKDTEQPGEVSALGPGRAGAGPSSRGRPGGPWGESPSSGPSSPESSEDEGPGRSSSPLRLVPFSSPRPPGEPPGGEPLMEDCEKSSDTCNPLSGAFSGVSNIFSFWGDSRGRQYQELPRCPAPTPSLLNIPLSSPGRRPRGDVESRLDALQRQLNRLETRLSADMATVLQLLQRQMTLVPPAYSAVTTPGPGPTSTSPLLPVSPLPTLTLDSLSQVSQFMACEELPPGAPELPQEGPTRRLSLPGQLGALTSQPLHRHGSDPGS
row,Compound,"hERG current change (%, negative = inhibition) at 10uM"
1,CC(=O)N/C(N)=N/c1nc2cc([N+](=O)[O-])ccc2o1,8.18%
2,NC(=O)c1ccc[n+](Cc2ccc(-c3ccccc3)cc2)c1.[Cl-],12.2%
3,COc1nc(-c2cccs2)cc(-c2ccc(C)cc2)c1C#N,25.7%
4,CC(C)OC(=O)C1C(=O)CC(C)(O)C(C(=O)OC(C)C)C1c1ccc([N+](=O)[O-])cc1 (centres unmarked),7.32%
5,Cc1ccc(Sc2ncccc2N)cc1,7.42%
6,CCOc1ccc(C(=O)CN2CCN(S(=O)(=O)c3ccc(F)cc3)CC2)cc1,-63%
7,CC(=O)Nc1ccc(S(=O)(=O)N2CCC(N(C)CCC(C)C)CC2)cc1.Cl,-46.8%
8,COc1ccc2cc(CN(C(=O)Nc3ccccc3)C3CCCC3)c(=O)[nH]c2c1,-60.5%
9,CCOC(=O)C(=O)Nc1ncc(Cl)s1,0.621%
10,CCCn1c(=N)n(CC(O)c2ccco2)c2ccccc21.Cl (centres unmarked),-43.8%
11,CCCC(=O)n1nc(-c2ccc(OC)cc2)nc1N,5.3%
12,CS(=O)(=O)c1ccc(C(=O)N2CCN(Cc3ccccc3)CC2)cc1,-55%
13,Cc1cc(NC(=O)c2c(-c3c(Cl)cccc3Cl)noc2C)n(C)n1,16%
14,O=S(=O)(NC(=S)NC1CCCCC1)c1ccc(Br)cc1,9.58%
15,CC(C)c1ccc(CC(NC(=O)c2ccccc2)C(=O)NCC(=O)O)cc1 (centres unmarked),31.2%
16,C=CCN1C(=O)N(c2ccc(F)cc2)C(=O)C1CC(=O)Nc1ccc(Cl)cc1 (centres unmarked),8.38%
17,COc1ccc(C(=O)NNC(=O)c2ccccc2[N+](=O)[O-])cc1[N+](=O)[O-],2.32%
18,CCOC(=O)c1ccc2c(c1)nc(SCc1cn3ccsc3n1)n2CC,-40%
19,COc1ccc2[nH]c(=O)c(CN(CCN(C)C)C(=O)NCc3ccccc3)cc2c1,9.31%
20,Cc1c(NC(=O)c2ccc3c4c(cccc24)CC3)c(=O)n(-c2ccccc2)n1C,4.88%
21,COC(=O)CN1C(=O)Nc2ccc(Cl)cc2C1c1ccccc1 (centres unmarked),7.58%
22,O=C1c2ccccc2NC(c2ccc(Br)s2)N1O (centres unmarked),12.8%
23,CC(C)C1Nc2ccc(S(=O)(=O)N3CCOCC3)cc2NC1=O (centres unmarked),29.6%

row,Compound,"hERG current change (%, negative = inhibition) at 10uM"
1,CS(=O)(=O)N(CC(=O)Nc1ccc(S(=O)(=O)N2CCCC2)cc1)c1ccccc1,19.8%
2,CCOc1ccc(CC(=O)N2N=C(C)CC2(O)C(F)(F)F)cc1 (centres unmarked),6.66%
3,CC(=NCCCO)c1c(O)n(Cc2ccccc2)c(=O)[nH]c1=O,8.83%
4,O=C(NCCNC(=O)c1ccccc1Cl)c1ccco1,20.6%
5,Nc1c(-c2ccc(Cl)cc2)cnn1C1CCS(=O)(=O)C1 (centres unmarked),-11.8%
6,O=C(CSc1nccc(=O)[nH]1)NN(c1ccccc1)c1ccccc1,7.73%
7,CCN(CC)CCCN1C(=O)c2oc3ccccc3c(=O)c2C1c1cccs1 (centres unmarked),6.51%
8,COc1cc(/C=C2/C(=O)NN(c3ccccc3)C2=O)cc(Br)c1O,13%
9,CCCn1c(Sc2nnnn2-c2ccccc2)n[nH]c1=O,6.32%
10,Cc1ccc(/C=C/C(=O)O)cc1S(=O)(=O)N(CCO)CCO,8.09%
11,O=S(=O)(NC1CC2CCC1C2)c1ccc(Cl)cc1 (centres unmarked),12.8%
12,Cc1ccc(N2N=C(c3ccc(Br)cc3)CCC2=O)cc1,13.8%
13,CN(C(=O)COC(=O)C1CCN(S(=O)(=O)c2c(Cl)cccc2Cl)CC1)C1CCS(=O)(=O)C1 (centres unmarked),-37.8%
14,COc1cccc(-n2cnc3sc(C)cc3c2=O)c1,-1.36%
15,COC(=O)c1cc2oc3ccccc3c2n1CC(=O)Nc1ccccc1OC,-3.85%
16,COc1ccc(/C=N/NC(=S)Nc2ccccc2)cc1COc1ccc(F)cc1F,3.62%
17,O=C1c2ccccc2NC(c2ccccc2)N1Cc1ccco1 (centres unmarked),-27.6%
18,Cc1ccccc1-c1nc(-c2ccc(Br)o2)no1,3.44%
19,Cc1c(NC(=O)COC(=O)C2(c3ccc(F)cc3)CCCC2)c(=O)n(-c2ccccc2)n1C,-2.07%
20,O=C(O)CCc1ccc(-c2ccc(Cl)cc2)n1CC(=O)Nc1ccccc1,13.1%
21,O=C(COC(=O)c1ccc(Br)o1)Nc1ncc([N+](=O)[O-])s1,10.6%
22,O=C(Nc1ccc(F)cc1)Nc1nnc(-c2ccncc2)s1,3.57%
23,O=C(CSc1nc2nc(-c3cccs3)cc(C(F)(F)F)c2c(=O)[nH]1)NCc1ccco1,-0.232%

row,Compound,"hERG current change (%, negative = inhibition) at 10uM"
1,CCOC(=O)CN(C(=O)Cn1nnc(-c2ccc(C)cc2)n1)C(CC)C(=O)NC1CCCC1 (centres unmarked),-8.67%
2,CC(Sc1nc(N)c(NC(=O)c2ccc(Br)o2)c(=O)[nH]1)C(=O)O (centres unmarked),-15.1%
3,Cc1ccccc1N1C(=O)C(Oc2ccc(Cl)cc2)C1CNCCCOC(C)C (centres unmarked),-53.4%
4,Cc1cc(=O)[nH]c2c1c(C)nn2C1CCCCC1,-3.84%
5,O=C(CCN1C(=O)/C(=C\c2ccccc2)SC1=S)NCCCN1CCOCC1,-15%
6,COc1ccc2c(c1)C1NC(=S)NC(C)(O2)C1C(=O)Nc1ccccc1C (centres unmarked),-16.9%
7,CCC(CO)N=CC1=C(O)CC(c2ccccc2)CC1=O (centres unmarked),17.1%
8,Cc1c(N2C(=O)C3C4C=CC(C4)C3C2=O)c(=O)n(-c2ccccc2)n1C (centres unmarked),12.5%
9,CCc1nnc(NC(=O)c2ccc(COc3ccccc3C)o2)s1,13.8%
10,Cl.Nc1nonc1C(=O)NCCNCc1c(OCc2ccccc2F)ccc2ccccc12,-11.9%
11,Cc1cccc(C)c1OCCNC(=O)c1ccc2ccccc2n1,5.09%
12,O=C(COc1coc(CN2CCc3ccccc32)cc1=O)NCCc1ccccc1,1.23%
13,Cc1cc(C(=O)CSc2nnnn2-c2ccc(O)cc2)c(C)n1C,4.74%
14,Cc1ccc(C)c(S(=O)(=O)Nc2ccc(C(=O)N3CCC3)cc2)c1,1.64%
15,Cc1cc(OCC(=O)NCCN2CCOCC2)c2c(C)c(C)c(=O)oc2c1,8.1%
16,CC1Cc2ccccc2N1C(=O)CO/N=C/c1ccc(OC(F)F)cc1 (centres unmarked),-38.3%
17,CCOC(=O)C1CCN(C(=O)CSc2ccc(Br)cc2)CC1,-36%
18,COc1ccc(-c2ccnc(SCC(=O)c3ccc(Br)cc3)n2)cc1,4.26%
19,CCOC(=O)c1cn(CC(=O)Nc2ccc(C)cc2)nn1,-1.09%
20,Cc1ccc(S(=O)(=O)Nc2nc3ccccc3nc2N2CCN(c3ccccc3F)CC2)cc1,-2.44%
21,Cc1cc(C(=O)NNc2c(Cl)cccc2Cl)n(C(C)(C)C)n1,17%
22,CCCn1nnnc1SCC(=O)Nc1cccc(NC(=O)c2ccco2)c1,-34.8%
23,Cc1cc(Cn2nc(-c3ccccc3)cc2C(=O)NCc2cccc(C(F)(F)F)c2)on1,10.8%

row,Compound,"hERG current change (%, negative = inhibition) at 10uM"
1,CC(=O)CCS(=O)(=O)c1ccc(C)c(C)c1,1.19%
2,Cc1cccc(/C(N)=N/OC(=O)c2cccc3ccccc23)c1,6.68%
3,O=C(NCC(c1ccco1)N1CCCCC1)c1ccc(OCc2ccccc2)cc1 (centres unmarked),-44.7%
4,CCN(CC)c1nc(N2CCOCC2)nc2ccccc12.Cl,-48.3%
5,COc1ccccc1CN1CCNC(=O)C1CC(=O)NCC1CCOCC1 (centres unmarked),-4.72%
6,Cc1cc2c(cc1C)/C(=N/NC(=O)c1ccccn1)CCC2,-34.4%
7,Cc1cc(C(F)(F)F)nc(SCC(=O)c2cccc([N+](=O)[O-])c2)n1,-20.1%
8,O=C(N/N=C/c1c(O)n(-c2ccc(Cl)cn2)c(=O)c2ccccc12)C1CC1,-4.78%
9,COc1ccc(CCn2c(C)ccc2C)cc1OC,7.84%
10,COc1ccccc1NS(=O)(=O)c1cccc(C(=O)NCC(c2ccco2)N2CCCC2)c1 (centres unmarked),-22.8%
11,Cc1cc(=O)oc2c3c(cc(OCC(=O)Nc4cccnc4)c12)OC(C)(C)CC3,12.8%
12,Cc1ccc(NC(=O)CC2SC(=NCC3CCCO3)NC2=O)cc1Cl (centres unmarked),-3.57%
13,Cc1cc(=O)n2[nH]c(CCC(=O)O)nc2n1,13.8%
14,Cc1cc(C)c2c(N)c(C(=O)Nc3ccccc3F)sc2n1,12.4%
15,CC1=C(C(=O)OC2CCCCCCC2)C(c2ccc(O)cc2)NC(=O)N1 (centres unmarked),-17.3%
16,COc1ccc(C(=O)C2CCCN(C3Cc4ccccc4C3)C2)cc1OC (centres unmarked),-76.6%
17,CCCc1nc2oc3c(NCC4CCCO4)ncnc3c2c2c1COC(C)(C)C2 (centres unmarked),-42.3%
18,Cc1cccc(NC(=O)c2ccccc2[N+](=O)[O-])n1,14.7%
19,O=C(c1ccccc1)N1CCCC(c2nc3c(nnn3Cc3ccccc3)c(=O)[nH]2)C1 (centres unmarked),-3.63%
20,CC/C(=N\Nc1ccccc1[N+](=O)[O-])c1ccc(O)cc1,18.7%

# Reference: paper PMC4336329 (PLoS ONE, 2015)
